# Data as given in article PMC3473057.
# Sequences of proteins named here, by UniProt entry; tags and fusion partners are left off. A change or cut given only in a name is not applied to a line headed by its entry. A line that says so, or that is headed by a name, gives the form on record, which may keep a tag or linker. Residues count along the entry.
# GST-Fyn-SH3 (mouse Fyn(T), Thr82-Glu148) (P39688, residues 82-148): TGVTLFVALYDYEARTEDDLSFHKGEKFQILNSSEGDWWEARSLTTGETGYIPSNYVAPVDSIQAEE
# GST-Fyn-SH2 (mouse Fyn(T), Trp149-Ala257) (P39688-2, form named): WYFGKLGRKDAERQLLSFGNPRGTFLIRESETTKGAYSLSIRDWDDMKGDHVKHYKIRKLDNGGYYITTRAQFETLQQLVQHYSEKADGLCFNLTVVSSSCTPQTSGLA
# GST-Fyn-SH2 R176K (P39688-2, form named): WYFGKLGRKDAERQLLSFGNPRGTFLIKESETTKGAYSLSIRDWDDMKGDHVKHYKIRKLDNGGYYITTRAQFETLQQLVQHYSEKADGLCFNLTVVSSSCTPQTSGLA
# UniProt Q06649, residues 455-553: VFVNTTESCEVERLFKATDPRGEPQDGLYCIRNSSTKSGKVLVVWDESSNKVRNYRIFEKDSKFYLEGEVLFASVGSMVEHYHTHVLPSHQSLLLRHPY
# UniProt Q13191, residues 2-349: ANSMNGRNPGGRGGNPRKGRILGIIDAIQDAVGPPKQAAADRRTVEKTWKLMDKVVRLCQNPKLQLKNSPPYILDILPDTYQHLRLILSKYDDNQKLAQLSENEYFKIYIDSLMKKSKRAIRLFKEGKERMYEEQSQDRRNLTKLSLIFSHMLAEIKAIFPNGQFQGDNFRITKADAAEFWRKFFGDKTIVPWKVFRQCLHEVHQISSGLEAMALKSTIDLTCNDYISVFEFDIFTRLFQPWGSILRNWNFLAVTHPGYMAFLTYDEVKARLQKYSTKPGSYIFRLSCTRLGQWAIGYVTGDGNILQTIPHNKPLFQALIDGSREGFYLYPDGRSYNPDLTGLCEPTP
# UniProt P54100, residues 669-763: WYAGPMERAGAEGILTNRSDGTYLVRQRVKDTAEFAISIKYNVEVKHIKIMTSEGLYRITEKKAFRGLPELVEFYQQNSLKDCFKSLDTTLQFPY
# GST-rat Lyn-SH3 (Q07014, residues 63-123): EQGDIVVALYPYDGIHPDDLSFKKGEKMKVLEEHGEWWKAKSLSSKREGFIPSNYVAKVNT
# GST-rat Lyn-SH2 (Q07014, residues 129-226): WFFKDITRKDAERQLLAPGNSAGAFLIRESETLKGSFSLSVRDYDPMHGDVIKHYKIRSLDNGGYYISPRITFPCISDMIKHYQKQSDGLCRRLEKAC
# UniProt P06241: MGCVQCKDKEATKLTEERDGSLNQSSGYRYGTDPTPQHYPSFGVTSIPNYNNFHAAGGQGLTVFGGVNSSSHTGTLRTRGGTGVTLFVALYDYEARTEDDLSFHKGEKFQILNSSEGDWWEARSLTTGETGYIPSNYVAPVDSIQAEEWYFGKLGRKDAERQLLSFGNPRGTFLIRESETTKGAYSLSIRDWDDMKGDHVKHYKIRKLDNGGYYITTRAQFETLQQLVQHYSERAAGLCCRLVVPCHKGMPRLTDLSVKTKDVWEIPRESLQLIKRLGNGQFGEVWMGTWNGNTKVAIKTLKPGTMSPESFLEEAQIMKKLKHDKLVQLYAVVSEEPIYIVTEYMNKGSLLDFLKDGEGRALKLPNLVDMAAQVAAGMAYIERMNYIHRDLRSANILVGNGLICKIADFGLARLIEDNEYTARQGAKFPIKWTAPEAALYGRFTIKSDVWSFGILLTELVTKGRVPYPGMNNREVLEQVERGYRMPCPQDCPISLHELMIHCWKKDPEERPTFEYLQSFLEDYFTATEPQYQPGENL
# GST-human Fyn-SH2 (Trp149-Arg268): residues 149-268 of P06241
# UniProt P00520, residues 65-119: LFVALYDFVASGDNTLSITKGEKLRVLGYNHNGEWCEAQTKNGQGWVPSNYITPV
# Results are given in words; binding and its absence hold for the method and conditions named. For some assays here: In cells and extracts the contact can be indirect. Some results given as binding are weak or reduced against the parent protein; the word gives no strength.
# Columns and labels:
# [1] = molecular target: Myc-His tagged HCV NS5A (Con1), stably expressed in BJAB B cells (hepatitis C virus) (UniProt Q9WMX2); test: co-IP
# [2] = molecular target: Myc-His tagged HCV NS5A (Con1), stably expressed in BJAB B cells (hepatitis C virus) (UniProt Q9WMX2); test: far-Western, overlay or dot blot; NS5A immunoprecipitates from BJAB cells separated by SDS-PAGE and transferred to PVDF; membrane incubated with 2.5 µg/ml GST-Fyn-SH2 for 1 h at 4°C; detected with anti-GST; only the binder purified
# [3] = molecular target: GST-Fyn-SH2 (mouse Fyn(T), Trp149-Ala257) (mouse) (UniProt P39688); test: pull-down; only the target purified
# [4] = molecular target: GST-mouse c-Abl SH3 domain-binding protein-2 (3BP2)-SH2 (mouse) (UniProt Q06649); test: pull-down; as the GST pull-down from PV-treated BJAB cells expressing Myc-His-NS5A; long exposure of the blot, data not shown; only the target purified
# [5] = molecular target: GST-Cbl-b N-terminal region containing SH2 domain (human, Ala2-Pro349) (human) (UniProt Q13191); test: as above
# GST-rat Vav1-SH2 (rat) = GST-rat Vav1-SH2 (rat) (UniProt P54100); test: as above
# GST-rat Lyn-SH2 (rat) = GST-rat Lyn-SH2 (rat) (UniProt Q07014); test: as above
# [6] = molecular target: Fyn, endogenous in BJAB cells (human (endogenous in BJAB)) (UniProt P06241); test: co-IP
# GST-rat Lyn-SH3 (rat) = GST-rat Lyn-SH3 (rat) (UniProt Q07014); test: pull-down; 20 µg GST-fusion protein prebound to glutathione Sepharose 4B; lysate of BJAB cells stably expressing Myc-His-NS5A, untreated or treated with 100 µM pervanadate for 3 min; binding buffer 1% NP-40, 50 mM Tris pH 7.4, 150 mM NaCl, 10 mM EDTA; 90 min at 4°C; blot with anti-NS5A; only the target purified
# [7] = molecular target: GST-Fyn-SH2 R176K (mouse) (UniProt P39688); test: as above
# [8] = molecular target: GST-Fyn-SH2 (mouse Fyn(T), Trp149-Ala257) (mouse) (UniProt P39688); test: as above
# [9] = molecular target: GST-c-Abl-SH3 (mouse, Leu84-Val138) (mouse) (UniProt P00520); test: as above
# [10] = molecular target: GST-Fyn-SH3 (mouse Fyn(T), Thr82-Glu148) (mouse) (UniProt P39688); test: as above
# [11] = molecular target: GST-human Fyn-SH2 (Trp149-Arg268) (human) (UniProt P06241); test: pull-down; GST-human Fyn-SH2; PV-treated BJAB cells expressing Myc-His-NS5A (clone 7) solubilized in the lysis buffer; blot with anti-NS5A; only the target purified
substance,measurement,setting,value
"Fyn, endogenous in BJAB cells (from UniProt P06241 1-537)",binding,[1],binds
"GST-Fyn-SH2 (mouse Fyn(T), Trp149-Ala257) (from UniProt P39688-2 149-257) (domain or fragment)",binding,[2],binds
HCV NS5A in Huh-7.5 cells stably harboring an HCV subgenomic replicon (from UniProt Q9WMX2 1973-2419),binding,[3],binds
"Myc-His tagged HCV NS5A (Con1), stably expressed in BJAB B cells (from UniProt Q9WMX2 1973-2419)",binding,[4],binds weakly
same,binding,[5],binds weakly
same,binding,GST-rat Vav1-SH2 (rat),binds weakly
same,binding,GST-rat Lyn-SH2 (rat),binds weakly
same,binding,[6],binds
same,binding,GST-rat Lyn-SH3 (rat),binds
same,binding,[7],no binding
same,binding,[8],binds
same,binding,[9],binds
same,binding,[10],binds
same,binding,[11],binds
